# Results taken from article PMC4336329 (PLoS ONE, 2015).
# About 2,200 (0.71%) of roughly 310,000 compounds showed an effect of 50% or more. The effect is printed as a negative number. Some of the results follow.
# Molecular target: human ether-à-go-go-related gene (hERG) potassium channel (human, UniProt Q12809)
# Experiment: primary screen, population patch clamp on CHO cells stably expressing hERG
# human ether-à-go-go-related gene (hERG) potassium channel, sequence (Q12809 whole entry, looked up): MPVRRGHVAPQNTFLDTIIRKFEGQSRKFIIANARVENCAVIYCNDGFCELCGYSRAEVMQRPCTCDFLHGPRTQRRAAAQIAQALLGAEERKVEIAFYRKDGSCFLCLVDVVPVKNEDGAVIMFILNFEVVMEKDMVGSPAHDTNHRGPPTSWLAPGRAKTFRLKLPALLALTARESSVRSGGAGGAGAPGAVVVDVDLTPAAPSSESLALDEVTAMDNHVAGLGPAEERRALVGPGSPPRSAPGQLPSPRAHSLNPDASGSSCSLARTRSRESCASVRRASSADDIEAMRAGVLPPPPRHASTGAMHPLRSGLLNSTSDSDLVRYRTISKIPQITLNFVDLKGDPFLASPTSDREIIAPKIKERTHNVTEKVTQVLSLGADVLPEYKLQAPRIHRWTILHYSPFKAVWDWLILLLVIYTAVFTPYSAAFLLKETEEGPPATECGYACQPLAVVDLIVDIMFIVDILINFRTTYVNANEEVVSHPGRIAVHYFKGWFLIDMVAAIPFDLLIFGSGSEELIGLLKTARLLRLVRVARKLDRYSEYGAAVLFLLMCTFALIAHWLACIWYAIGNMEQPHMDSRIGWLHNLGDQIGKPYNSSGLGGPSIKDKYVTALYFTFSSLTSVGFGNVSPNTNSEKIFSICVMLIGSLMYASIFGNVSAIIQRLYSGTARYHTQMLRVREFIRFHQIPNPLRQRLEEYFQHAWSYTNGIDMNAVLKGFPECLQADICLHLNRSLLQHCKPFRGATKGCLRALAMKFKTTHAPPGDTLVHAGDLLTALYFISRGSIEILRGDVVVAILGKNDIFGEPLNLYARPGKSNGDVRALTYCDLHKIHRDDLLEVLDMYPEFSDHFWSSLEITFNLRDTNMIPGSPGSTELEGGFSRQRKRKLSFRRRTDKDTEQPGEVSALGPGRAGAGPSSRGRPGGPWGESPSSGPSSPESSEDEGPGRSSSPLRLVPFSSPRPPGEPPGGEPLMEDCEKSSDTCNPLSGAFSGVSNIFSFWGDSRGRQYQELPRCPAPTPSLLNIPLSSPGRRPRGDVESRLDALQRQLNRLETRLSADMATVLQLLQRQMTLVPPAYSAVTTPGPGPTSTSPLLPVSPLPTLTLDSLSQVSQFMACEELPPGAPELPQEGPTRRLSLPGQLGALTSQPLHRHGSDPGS
row,Compound,"hERG current change (%, negative = inhibition) at 1uM"
1,CCCCNc1ccc(C(CC(N)=O)NC(=O)c2cc(C)cc(C)c2)cc1[N+](=O)[O-] (stereo not shown),12.2%
2,CCN(CC)C(=O)c1ccc2c(c1)C1C=CCC1C(C(=O)O)N2 (stereo not shown),7.12%
3,COc1c(Cl)cc(-c2noc(C)c2C(=O)NCc2ccccc2)cc1Cl,5.03%
4,CCOC(=O)c1cnc(-n2nc(C)cc2C)nc1Nc1ccc(N(C)C)cc1,-3.63%
5,COc1ccc(S(=O)(=O)N(CC(=O)N2CCOCC2)c2cc(Cl)ccc2OC)cc1OC,-4.36%
6,COCCN(C(=S)Nc1c(C)cccc1C)C(C)c1cccs1 (stereo not shown),5.83%
7,O=C(NC1CC2CCCC(C1)N2C(=S)Nc1ccccc1Cl)C1CC1 (stereo not shown),13.6%
8,Cc1ccc(-n2c(O)c(C=NCCN3CCOCC3)c(=O)[nH]c2=O)cc1,18.2%
9,COc1ccc(C(=O)N/C(=C/c2ccccc2F)C(=O)NCCN2CCOCC2)cc1OC,14.7%
10,COc1ccc(C(=O)NCC(c2ccccc2)N2CCCC2)cc1S(=O)(=O)N1CCOCC1 (stereo not shown),9.56%
11,Cc1ccc(-n2nnnc2-c2cccc(C)c2)cc1,10.3%
12,O=C1OCCN1C(=O)[C@H]1[C@H](c2ccc(F)cc2)C(c2ccc(F)cc2)=NN1c1ccccc1,5.41%
13,COc1ccc(NC(=S)NN2CCN(C)CC2)cc1,14.6%
14,c1ccc(C2CC(c3ccccc3)n3ncnc3N2)cc1 (stereo not shown),8.32%
15,Cc1cc(NC(=O)CSc2nc(=O)n(CCCN(C)C)c3c2CCCC3)no1,10.8%
16,CN(/C(=N/S(=O)(=O)c1ccccc1)c1ccccc1)S(=O)(=O)c1ccccc1,9.03%
17,C=CCn1c(SCC(=O)N2CCCC2)nc2cc(C(=O)NCC3CCCO3)ccc2c1=O (stereo not shown),4.24%
18,CSc1ccc(/C=C/C(=O)NC(=O)c2ccccc2O)cc1,13.1%
19,C=C(C)CSc1nnc(CCCCCNC(=O)OC(C)(C)C)o1,2.66%
20,Cc1ccccc1NC(=O)CCC(=O)OCC(=O)c1cccc([N+](=O)[O-])c1,5.3%
21,O=C(Cn1c(=O)[nH]c2ccsc2c1=O)N1CCN(c2ccc(F)cc2)CC1,-7.95%
22,CCOc1ccc(N(CC(=O)Nc2c(C)n(C)n(-c3ccccc3)c2=O)S(=O)(=O)c2ccccc2)cc1,-14.9%

row,Compound,"hERG current change (%, negative = inhibition) at 1uM"
1,COc1ccc([N+](=O)[O-])cc1NC(=O)COC(=O)C=C(C)C,6.89%
2,CCCCn1c(NS(=O)(=O)c2ccc(C)cc2)c(S(=O)(=O)c2ccccc2)c2nc3ccccc3nc21,9.76%
3,COc1ccc(CCNc2ccc([N+](=O)[O-])cn2)cc1,8.53%
4,COC(=O)c1c(C(C)=O)c(C)n(C)c1C,12.4%
5,COc1ccc(-c2cc(C(=O)N3CCCC(C(F)(F)F)C3)c3ccccc3n2)cc1OC (stereo not shown),6.8%
6,COc1ccc(NS(=O)(=O)c2cc(Br)cc3c2N(C(C)=O)CC3)cc1,27.7%
7,Cl.c1ccc2c(CN3CCOCC3)csc2c1,5.46%
8,Cc1ccnc(NS(=O)(=O)c2ccc(NS(=O)(=O)c3cc(Cl)ccc3Cl)cc2)n1,6.64%
9,CC(C)(C)c1ccc(C(=O)Nc2ccc(Cl)cc2)cc1,2.26%
10,CCOc1ccc(OCC(=O)Nc2c3c(nn2C(C)(C)C)CS(=O)(=O)C3)cc1,10.2%
11,CC(C)(C)C(=O)Nc1ccc(C(=O)CN2C(=O)NC3(CCOc4ccccc43)C2=O)cc1 (stereo not shown),6.51%
12,Cc1cccc(CCNCc2c(C(=O)O)c(C)n(-c3ccccc3)c2C)c1,14.2%
13,COc1ccc(C(O)P(=O)(O)CCc2ccccc2)cc1 (stereo not shown),-6.19%
14,CC(C#N)Sc1ccc(S(=O)(=O)N2CCCC2)cn1 (stereo not shown),5.38%
15,CCN1C(=O)/C(=C/c2ccc(N3CCCC3)cc2)NC1=S,2.55%
16,COC(=O)Oc1ccc(/C=N/NC(=O)CN(c2ccccc2Br)S(C)(=O)=O)cc1OC,-1.33%
17,COc1cccc(C2=NOC(C(=O)NCCCn3ccnc3)C2)c1 (stereo not shown),12.9%
18,CC(=O)Nc1cccc(NS(=O)(=O)c2ccccc2[N+](=O)[O-])c1,7.03%
19,CC1=C(C(N)=O)C(c2ccc(Br)cc2)n2ncnc2N1 (stereo not shown),15.2%
20,N#Cc1ccc2nc3c(nc2c1)CCCC3,-5.07%
21,COC(=O)C1=C(c2cccc(OCc3ccccc3)c2)C[C@@H]2CC[C@H]1N2C(=O)NCCOc1ccc(OC)cc1,4.97%
22,COC(=O)c1ccc(CSc2nc3ccccc3c(=O)n2-c2ccc(OC)c(OC)c2)o1,15.1%

row,Compound,"hERG current change (%, negative = inhibition) at 1uM"
1,Cc1csc(NC(=O)CSC2=NS(=O)(=O)c3ccccc3N2)n1,12.4%
2,Cc1cc(C)c(C(=O)NC2CCCc3c2cnn3-c2ccc(C)c(C)c2)c(=O)[nH]1 (stereo not shown),11%
3,Nc1nc(CN2CCN(c3ccccc3F)CC2)nc(N2CCCc3ccccc32)n1,6.63%
4,CCCC(=O)Nc1ccccc1-c1nnc(SC)[nH]c1=O,2.86%
5,CCOC(=O)NC(=O)C(=CNc1ccc(C)cc1)C(=O)NC(=O)OCC,9.57%
6,CCOC(=O)c1c(C)nc(C)c2c(=O)oc3ccccc3c12,4.64%
7,CCOC(=O)c1oc2ccccc2c1NC(=O)C(C)(C)C,-0.56%
8,C=CCN(C(=O)c1csnn1)C(C(=O)NCc1ccc(F)cc1)c1ccccc1F (stereo not shown),1.01%
9,Cc1ccc(C)c(NC(=O)C2CCCN2C(=O)NC2CCCCC2)c1 (stereo not shown),32.6%
10,Cl.O=C(C1CCC1)N1CCN(Cc2ccccc2)CC1,11.3%
11,COc1ccc(NC(=O)CN(C)C(=O)c2cn(-c3ccccc3)nc2-c2cccnc2)cc1,9.52%
12,Cc1ccc(NC(=O)CN2C(=O)S/C(=C\c3ccccn3)C2=O)cc1C,14.2%
13,COc1ccc(-n2cc(C#N)c(=O)[nH]c2=O)cc1,24.9%
14,C=CCNC(=O)/C(=C/c1cccc([N+](=O)[O-])c1)NC(=O)c1ccccc1,-16.1%
15,COc1cc(OC)cc(-c2c(C#Cc3ccsc3)c3cc(-c4ccc(OC)nc4)ccc3n2C)c1,14.9%
16,COc1ccc(C2/C(=C(\O)c3ccc4c(c3)OCCO4)C(=O)C(=O)N2CCCN(C)C)c(OC)c1 (stereo not shown),-3.84%
17,Cc1c(C)c2ccc(OCC(=O)Nc3nccs3)cc2oc1=O,6.88%
18,NC(=O)c1ncn([C@@H]2O[C@H](CO)[C@@H](O)[C@H]2O)c1O,8.69%
19,Cc1cc(C)c(NC(=O)CS(=O)CC(=O)NC2CCCc3ccccc32)c(C)c1 (stereo not shown),16.2%
20,COc1cc(/C=C2\C(=N)N3N=C(S(C)(=O)=O)SC3=NC2=O)ccc1OS(=O)(=O)c1ccc(C)cc1,16%
21,O=C(Nc1ccc2c(c1)ncn2C1CCCCC1)c1ccco1,0.217%
22,Cc1cc(NC(=O)c2ccc3c(c2)OCO3)ccc1NC(=O)c1ccccc1,14.6%

row,Compound,"hERG current change (%, negative = inhibition) at 1uM"
1,Cc1c(C(c2cc(O)ccc2Cl)c2c(C)n(C)n(-c3ccccc3)c2=O)c(=O)n(-c2ccccc2)n1C,11%
2,COc1ccc2nc(N(CCN(C)C)C(=O)c3ccc4ccccc4c3)sc2c1.Cl,7.63%
3,CCN1CCN(C(c2cccnc2)c2cc(Cl)c3cccnc3c2O)CC1 (stereo not shown),-24.8%
4,CCOC(=O)N=Nc1c(O)n(CC(=O)OC)c2ccccc12,10.4%
5,CC(=O)c1cccc(NC(=O)c2ccc(NC(=O)CC3SC(N4CCCCC4)=NC3=O)cc2)c1 (stereo not shown),5.59%
6,CCCOc1ccc(C(=O)N2CCN(c3ccc(N)cc3Cl)CC2)cc1,-6.51%
7,Cc1cc(OCCCCCn2ccnc2)cc(C)c1Cl.Cl,10.2%
8,O=C(CN1C(=O)c2ccccc2S1(=O)=O)NCc1c(F)cccc1F,6.3%
9,CCc1ccc(NC(=O)CN(c2ccc(OC)cc2)S(=O)(=O)c2c(C)[nH]c(=O)[nH]c2=O)cc1,14.7%
10,CN(C)CCNC(=O)/C(=C/c1ccc(-c2ccc(Cl)cc2Cl)o1)NC(=O)c1ccccc1,-7.71%
11,CCN1CCCC1CNc1ncnc2c1[nH]c1ccc(F)cc12 (stereo not shown),-81.4%
12,COc1ccc(C2SCC(=O)Nc3c2c(C)nn3-c2ccccc2)cc1 (stereo not shown),17.2%
13,O=C(NC1CCN(S(=O)(=O)c2ccc(F)cc2)CC1)C1CCCCC1,10.9%
14,COC(=O)c1ccc(CN(c2ccccn2)S(=O)(=O)c2ccccc2)cc1,20.5%
15,CN1CCN(c2ccccc2NC(=O)c2ccccc2F)CC1,-46.4%
16,CN(C)C(=O)/C(=C\c1ccncc1)NC(=O)c1ccccc1,3.87%
17,O=C(Nc1nccs1)OCc1ccccc1,11.3%
18,Cc1ccc2nc(NC(=O)CN3CCN(c4ccccn4)CC3)sc2c1,7.71%
19,COc1cccc(OCc2cc(C(=O)NCCc3cccc(C)n3)no2)c1,8.21%
